The structures appear in SMILES notation. Among all 52,000 compounds or so, about 4,300 (8.3%) were called active. Rule as the data show it: active = survival mostly below about 52% (no sharp cut-off); inactive = mostly above about 56%. The list shows a part of the results.

The experiment has as its system DeltatarO mutant. Briefly: growth inhibition of S. aureus wild type versus tarO mutant, primary screen, teichoic acid synthesis inhibitors, RN4220, OD600 (AID 463173). Particulars: OD600, 18 h, active compounds read low, screened at 18.75 µg/mL (by protocol).
`N#CC1=C(N)SC(N)=C(C#N)C1c1cc2c(cc1Cl)OCO2`: the survival is inactive: 117%. The result for `C=CCN1CCN(C(c2ccc(C)cc2)c2nnnn2C2CCCC2)CC1` (stereo not drawn) reads inactive: 103%. Take `Cc1cccc(CNC(=O)c2ccc(-c3nc(CS(=O)(=O)c4ccccc4)c(C)o3)cc2)c1`: the survival is inactive: 94%. The result for `CN(C)c1ccc(-c2nc(-c3ccccn3)no2)cc1[N+](=O)[O-]` reads active: 42%. `Cc1cc(C)n2nc(CNC(=O)c3cccc(Cl)c3)nc2n1`: the survival is inactive: 80%. The same measure for `CSc1ccc(CCNC(=O)C(C)n2nc(C)c3c(C)n(-c4ccccc4)nc3c2=O)cc1` (stereo not drawn): active: 46%; for `COc1cc(S(=O)(=O)N2CC(C)OC(C)C2)c(OC)cc1Cl` (stereo not drawn): inactive: 109%; for `COc1ccc(NC(=O)CSc2nnc(CNc3ccc(C)cc3C)o2)c(OC)c1`: inactive: 80%.

For `COc1ccccc1OC(C)C(=O)Nc1ccc(-c2nc3ccccc3s2)cc1` (stereo not drawn), the survival is inactive: 64%.

As to `CC1(C)CC(CC(=O)O)(Cc2ccccc2)CCO1` (stereo not drawn), the survival is inactive: 95%. The result for `CCc1ccc(NC(=O)CCn2nc(-c3ccccc3OC)c3c(C)cc(C)nc32)cc1` reads inactive: 53%.

`Cc1ccc(-c2nnc(Nc3cccc(O)c3)c3ccccc23)cc1S(=O)(=O)N1CCOCC1`: the survival is inactive: 78%. `COc1ccc(-c2noc(CC(=O)Nc3ccc(F)cc3F)n2)cc1`: the survival is inactive: 63%.

As for `CN(Cc1ccccc1)C(=O)Nc1ccc2c(c1)N(C)C(=O)c1ccccc1S2`, the survival is inactive: 94%. The same measure for `COc1ccc(NC(=O)C2=C(C)Nc3nc(SCc4ccccc4C)nn3C2c2cc(OC)c(O)c(OC)c2)cc1` (stereo not drawn): inactive: 89%; for `Cc1ccc(-n2ncc(C(=O)NCc3cccs3)c2C2CCN(C(=O)OC(C)(C)C)CC2)c(C)c1`: inactive: 101%.

On to `CCC(Sc1nc2cc(OC)c(OC)cc2c2nc(-c3ccccc3)nn12)C(=O)Nc1cccc(C)c1` (stereo not drawn), for which the survival was inactive: 80%. The result for `O=C(NCc1ccccc1Cl)c1ccc(CSCc2ccccc2Cl)o1` reads inactive: 93%; that for `COc1ccc(OC)c(NC(=O)CSc2nnc3ccc4ccccc4n23)c1`, inactive: 57%; that for `Cc1ccc(CSc2nnc(CCNC(=O)OC(C)(C)C)o2)cc1`, inactive: 120%.

`COc1cc2cc(CNc3ccc(C)cc3)c(=O)n(CC(=O)Nc3ccc(F)cc3F)c2cc1OC`: the survival was inactive: 83%.

In the case of `CCOC(=O)c1c(C)[nH]c(CCC(=O)Nc2ccc(C)c(F)c2)c1C`, the survival was inactive: 101%. Consider `CC(C)NC(=O)CN1C(=O)COc2ccc(S(=O)(=O)N3CCCCCC3)cc21`, for which the survival is inactive: 77%.

As to `COc1cc(C(=O)NCC(c2cccs2)S(=O)(=O)c2ccc(F)cc2)cc(OC)c1OC` (stereo not drawn), the survival was inactive: 104%. Consider `Cc1cccc(OCC(=O)Nc2ccc(Cl)c(-c3nc4ncccc4o3)c2)c1C`, for which the survival was inactive: 62%. The same measure for `Cc1ccccc1Oc1ccc(-c2nc(N)nc(N)n2)cc1`: inactive: 81%; for `O=C(CSC1=NCCS1)NCc1ccco1`: inactive: 95%; for `Cc1cccc(NC(=O)c2nnn(CC(=O)Nc3ccc(C(C)C)cc3)c2N)c1C`: inactive: 93%. The result for `COc1ccc(-c2cc(C(=O)OC(C)C(=O)c3ccccc3)c3cccc(Cl)c3n2)cc1` (stereo not drawn) reads inactive: 76%. The same measure for `c1ccc(Nc2c(-c3c[nH]c4ccccc34)nc3ccccn23)cc1`: active: 54%; for `CC(C)Nc1ccc(-c2nc(-c3ccco3)no2)cc1[N+](=O)[O-]`: inactive: 107%. Turning to `Cc1ccc(C2c3[nH]c4ccccc4c3CCN2C(=O)c2cccc(C)c2)cc1` (stereo not drawn), the survival is inactive: 124%.

Consider `Cc1ccc2nc(N3CCC(C(=O)N4CCN(c5cccc(Cl)c5)CC4)CC3)[nH]c2c1`, for which the survival was inactive: 68%. The result for `CCOCCCNC(=O)C(c1ccc(C)cc1)N(Cc1ccc2c(c1)OCO2)C(=O)c1ccc(NC(C)=O)cc1` (stereo not drawn) reads inactive: 51%; that for `CCC(C)NC(=O)c1ccccc1NC(=O)CN1C(=O)c2cccc3cccc1c23` (stereo not drawn), inactive: 50%; that for `Cc1ccc(NC(=O)CCc2nnc3n(C)c(=O)c4sccc4n23)cc1C`, inactive: 70%. The same measure for `CSC1=NC2(CCN(C(=O)NC3CCCCC3)CC2)N=C1c1ccc(C)c(C)c1`: inactive: 81%. The same measure for `Cc1ccc(CNC(=O)CC(C)S(=O)(=O)c2cc3c(cc2C)NC(=O)CO3)cc1` (stereo not drawn): inactive: 89%. For `CC(C)Oc1ccc(C(=O)N(Cc2ccco2)c2ccccn2)cc1`, the survival is inactive: 60%. The result for `Cc1ccc(C)c(NC(=O)CN2C(=O)C(C)(C)c3ccccc32)c1` reads inactive: 74%. The result for `O=C(Nc1sc2c(c1C(=O)NCc1ccco1)CCCC2)c1cc(=O)c2ccccc2o1` reads active: 43%; that for `COc1ccc(Br)cc1CNC(=O)c1cc2n(n1)CCCN(Cc1ccc(C)cc1)C2=O`, inactive: 102%; that for `CCC(=O)N1CCc2cc(Br)cc(S(=O)(=O)CCC(=O)NCc3ccc(Cl)cc3)c21`, inactive: 78%. Consider `Cc1nc(Oc2ccc(F)cc2Cl)c2oc3ccccc3c2n1`, for which the survival was inactive: 70%.

`CCOC(=O)Cc1nn(Cc2ccccc2)c(=O)c2ccccc12`: the survival was inactive: 67%. The result for `CCOc1ccccc1NC(=O)CN(C)S(=O)(=O)c1ccc2nc(C)sc2c1` reads inactive: 97%. The result for `O=C(NCc1ccco1)c1ccc2c(c1)N(Cc1ccc(Cl)cc1)C(=O)c1ccccc1S2=O` (stereo not drawn) reads inactive: 116%. As for `Cc1ccc(NC(=O)Nc2ccc3snnc3c2)cc1C`, the survival is inactive: 66%. The result for `CNC(=S)N(Cc1cccnc1)Cc1cc2cc(OC)ccc2[nH]c1=O` reads inactive: 91%; that for `CCN(C(=O)C1CCCN(S(=O)(=O)c2c(C)noc2/C=C/N(C)C)C1)c1cccc(C)c1` (stereo not drawn), inactive: 73%.

`CCN(c1ccccc1)c1nnc(NC(=O)Nc2ccccc2F)s1`: the survival is inactive: 105%. The same measure for `CCc1ccc(CN(Cc2ccco2)c2cnc(S(C)(=O)=O)nc2C(=O)Nc2ccccc2Cl)cc1`: inactive: 101%; for `CC(NC1CCCC1)c1ccccc1` (stereo not drawn): inactive: 84%.

Take `Cc1cccc(OCC(=O)N2CCc3ccccc32)c1`: the survival was inactive: 87%. The same measure for `CN1C(=O)CC(NCCc2ccc(S(N)(=O)=O)cc2)C1=O` (stereo not drawn): inactive: 72%. The same measure for `COC(=O)c1scc(-c2ccc(C)cc2)c1S(=O)(=O)N1CCN(c2cccc(OC)c2)CC1`: inactive: 54%. The same measure for `CCc1nnc(SC(CC)C(=O)Nc2cccc(OC)c2)c2cc3oc(C)cc3n12` (stereo not drawn): inactive: 70%; for `Cc1ccc(Sc2c(C)nn(C(C)(C)C)c2OC(=O)C(C)(C)C)cc1`: active: -10%. As to `Fc1ccc(Nc2c3c(nc4ccccc24)CCC3)cc1`, the survival is inactive: 69%. The result for `CCC(C(=O)Nc1cc(OC)cc(OC)c1)n1nc(-c2ccc(C)c(C)c2)ccc1=O` (stereo not drawn) reads inactive: 75%. The result for `Cc1nc2scc(C)n2c(=O)c1S(=O)(=O)Nc1ccc(N2CCOCC2)c(Cl)c1` reads inactive: 80%; that for `CCOc1ccc(-c2nc(CSCC(=O)N3CCN(c4ccc(F)cc4)CC3)c(C)o2)cc1`, inactive: 89%; that for `CCOc1ccc(C(=O)NCCn2cc(SCC(=O)Nc3ccc4c(c3)OCCO4)c3ccccc32)cc1`, inactive: 80%.

Turning to `CN1CCc2c(sc3c2C(=O)NC(c2ccc(OC(=O)c4ccc(C(C)(C)C)cc4)cc2)N3)C1` (stereo not drawn), the survival was inactive: 50%. The result for `Cc1ccc(S(=O)(=O)Nc2cc3c(cc2NCc2ccccc2)n(C)c(=O)n3C)c(C)c1` reads inactive: 60%; that for `O=C(CCc1nc(CN2CCN(S(=O)(=O)c3ccc(Cl)cc3)CC2)no1)N1CCCCC1`, inactive: 113%; that for `Cc1cccc(Cn2c(SCc3ccc(C(=O)NCCc4ccccc4)cc3)nc3ccncc32)c1`, inactive: 81%.

For `CCc1cccc(C)c1NC(=O)Cn1ccn(-c2cccc(OC)c2)c(=O)c1=O`, the survival was inactive: 72%. The result for `COc1ccc(-c2cc3nc(C)c(CCC(=O)Nc4ccccc4C(C)=O)c(C)n3n2)c(OC)c1` reads inactive: 91%; that for `COc1ccc(-n2c(=O)c3c(c4cc(OC)ccc4n3C)n(Cc3cccc(OC)c3)c2=O)cc1`, inactive: 91%.

For `O=C(CCC1N=C2c3ccccc3N=C(SCc3ccc(F)cc3)N2C1=O)NCc1ccc(F)cc1` (stereo not drawn), the survival was inactive: 75%. The same measure for `Fc1cccc(-n2ncc3c2ncn2nc(COc4ccc(Cl)cc4)nc32)c1`: inactive: 111%. The same measure for `CCCC1=Nc2cc(C(=O)NCc3ccc(OC)cc3)ccc2Sc2ccc(C)cc21`: inactive: 70%; for `COc1ccc(C(C(=O)NC2CCCC2)N(Cc2ccc(C)cc2)C(=O)c2ccn[nH]2)cc1OC` (stereo not drawn): inactive: 104%. The result for `CCN1CCN(CC(=O)NC23CC4CC(CC(C4)C2)C3)CC1` reads inactive: 80%; that for `O=C(CSCc1cccc(F)c1)NCc1ccccc1`, inactive: 78%; that for `Cc1ccc(N2CCN(C(=O)c3c(C)oc4ncn(CC(C)C)c(=O)c34)CC2)c(C)c1`, inactive: 88%. Turning to `CCC(C)NC(=O)c1cc(-c2cccc(OC)c2)on1` (stereo not drawn), the survival was active: 32%. The same measure for `Cc1ccc(C)c(N2CCN(C(=O)C3CCN(c4nc5ccc(C)cc5[nH]4)CC3)CC2)c1`: inactive: 94%; for `Cc1cccc(NC(=O)CSc2ncc3c(n2)-c2ccccc2N(Cc2ccc(F)cc2)S3(=O)=O)c1C`: inactive: 68%; for `Cc1cc(-c2ccc(C)c(S(=O)(=O)N3CCN(c4cccc(C(F)(F)F)c4)CC3)c2)on1`: inactive: 86%.

As for `Cc1cccc(CCNC(=O)c2ccc3c(c2)N(Cc2ccccc2F)C(=O)c2ccccc2S3)c1`, the survival was inactive: 83%.

Regarding `Cc1ccc(Oc2c(C(F)(F)F)oc3c(CN4CCC(C)CC4)c(O)ccc3c2=O)cc1`, the survival is inactive: 79%. The same measure for `CCc1cccc(NC(=O)CCC(=O)N2CCSc3ccccc32)c1`: inactive: 57%; for `CN(C)c1ccc(-c2nc(-c3cc4cc(Cl)ccc4oc3=O)cs2)cc1`: inactive: 89%. The result for `COc1cc(NC(=O)Cn2c(=O)n(Cc3ccco3)c(=O)c3sc4ccccc4c32)cc(OC)c1` reads inactive: 79%; that for `COCCCNc1oc(/C=C/c2cc(OC)c(OC)c(OC)c2)nc1C#N`, inactive: 75%; that for `Cc1ccccc1OCC(=O)OC1CCCN(C)C1` (stereo not drawn), inactive: 90%.
